{
  "source": "PubChem BioAssay AID2147",
  "about": "(National Center for Advancing Translational Sciences (NCATS), 2009)",
  "note": "Several values for one entry are separate records, joined by “and”; a condition that tells them apart may be missing. Equal entries are not always repeated. The whole screen tested about 230,000 compounds, of which about 3,600 (1.6%) were called active. Inconclusive results, whose numbers are uncertain, are shown with a selection of clear calls. The call rests on the fitted dose curve; in most records, active means well fitted inhibition curve with a large enough effect (not every such curve was filed as active); inconclusive means small, poorly fitted or top-dose-only effect, or another doubt; inactive means no such curve, though single readings can be large or run the other way. Where the call is inconclusive, the potency comes from a doubtful curve fit. Further: nearly all actives have a fitted effect of over 50% in size. Potency means the concentration at half of the fitted maximal effect; tags describe the fitted curve by direction and shape.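 Wherever activity change, negative = inhibition is given: 0% = wells with enzyme and -100% = buffer wells without enzyme.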",
  "data": [
    {"target": "Lysine-specific demethylase 4E (Homo sapiens) (UniProt B2RXH2)", "sequence (B2RXH2 whole entry, looked up, the tested form may be a part)": "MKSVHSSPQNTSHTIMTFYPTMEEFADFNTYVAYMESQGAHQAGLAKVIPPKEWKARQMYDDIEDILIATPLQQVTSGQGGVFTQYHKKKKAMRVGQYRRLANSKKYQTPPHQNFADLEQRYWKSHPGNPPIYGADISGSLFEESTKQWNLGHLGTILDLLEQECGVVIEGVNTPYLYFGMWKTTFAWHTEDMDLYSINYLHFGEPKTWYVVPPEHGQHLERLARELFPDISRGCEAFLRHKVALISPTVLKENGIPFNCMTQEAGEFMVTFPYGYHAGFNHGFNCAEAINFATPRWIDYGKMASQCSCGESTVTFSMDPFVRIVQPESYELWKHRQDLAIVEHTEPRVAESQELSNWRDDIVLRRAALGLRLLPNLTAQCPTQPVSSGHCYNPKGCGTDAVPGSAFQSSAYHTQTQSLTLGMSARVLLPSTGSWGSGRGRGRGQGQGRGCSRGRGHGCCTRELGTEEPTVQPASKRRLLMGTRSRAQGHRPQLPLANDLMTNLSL", "experiment": "qHTS Assay for Inhibitors of Human Jumonji Domain Containing 2E (JMJD2E)", "details": "JMJD2E catalytic domain, FDH-coupled NADH fluorescence (FDH is formaldehyde dehydrogenase); series mostly up to 57.1 µM; activity change, negative = inhibition: at the top concentration", "values": [
      {"smiles": "CSc1cnc2c(=O)n(C)c(=O)[nH]c2n1", "Potency": "inconclusive: 28.2 µM [inhibitor, partial curve]"},
      {"smiles": "CN1CCN(CCCNC(=O)c2ccc(/C=C3\\Sc4ccccc4N(Cc4ccccc4F)C3=O)cc2)CC1", "Potency": "inconclusive: 39.8 µM [inhibitor, single point]"},
      {"smiles": "N#CCSc1nc2c(c(C3CC=CCC3)c1C#N)CCC2", "note": "(configuration not stated)", "Potency": "inconclusive: 22.4 µM [inhibitor, single point]"},
      {"smiles": "CCCn1c(=O)c(Cc2ccccc2)c(O)c2ccccc21", "Potency": "inconclusive: 0.631 µM [inhibitor, single point]"},
      {"smiles": "O=C(CSc1nnc(SCc2ccccc2)s1)N/N=C/c1c[nH]c2ccccc12", "activity change, negative = inhibition": "inactive: -14.7%"},
      {"smiles": "COc1cc(OC)c2ccc(=O)oc2c1C(CC(=O)N1CCCC(C)C1)c1ccc2c(c1)OCO2", "note": "(configuration not stated)", "Potency": "inconclusive: 39.8 µM [inhibitor, single point]"},
      {"smiles": "O=C(N/C(=C/c1ccco1)C(=O)N1CCc2ccccc21)c1ccco1", "Potency": "inconclusive: 39.8 µM [inhibitor, single point]"},
      {"smiles": "CCN(CC)C(=O)c1ccc2c3c(cccc13)C(=O)N(CCc1ccc(OC)c(OC)c1)C2=O", "activity change, negative = inhibition": "inactive: 10.8%"},
      {"smiles": "COc1cccc([C@@H]2Oc3ccc(Br)cc3C[C@H]2OC(=O)NCCc2ccc(OC)c(OC)c2)c1", "activity change, negative = inhibition": "inactive: 2.84%"},
      {"smiles": "CCOC(=O)c1oc2ccc(OC)cc2c1NC(=O)CN1CCN(C)CC1", "Potency": "inconclusive: 31.6 µM [inhibitor, partial curve]"},
      {"smiles": "Cc1ccc2nc(-c3ccc4c(c3)OCCO4)cn2c1", "Potency": "inconclusive: 28.2 µM [inhibitor, partial curve]"},
      {"smiles": "CCC(=O)/C=C1\\Sc2ccc(OC)cc2N1CC", "Potency": "inconclusive: 39.8 µM [inhibitor, single point]"},
      {"smiles": "COc1ccc(-c2coc3cc(O)cc(O)c3c2=O)cc1", "Potency": "inactive and inconclusive: 35.5 µM [inhibitor, single point] and inconclusive: 31.6 µM [inhibitor, single point]"},
      {"smiles": "COc1c(C2=CC(=O)N(C)C2=O)c2c(n1C)C(=O)c1ccccc1C2=O", "activity change, negative = inhibition": "inactive: -16.2%"},
      {"smiles": "CC(=O)NS(=O)(=O)c1ccc(NC(=O)c2cc(-c3cccs3)nc3ccccc23)cc1", "Potency": "inconclusive: 28.2 µM [inhibitor, partial curve]"},
      {"smiles": "O=C(O)CSCc1c(F)cccc1Cl", "Potency": "inconclusive: 39.8 µM [inhibitor, single point]"},
      {"smiles": "CCOC(=O)c1c(CN2CCN(C)CC2)oc2ccc(OC)cc12", "Potency": "inconclusive: 39.8 µM [inhibitor, single point]"},
      {"smiles": "Cc1cc2nnc(SC3CCOC3=O)n2c2ccccc12", "note": "(configuration not stated)", "Potency": "inconclusive: 39.8 µM [inhibitor, single point]"},
      {"smiles": "CCOc1ccc2nc(NC3=NC(c4ccc(OC)cc4)CC(=O)N3)nc(C)c2c1", "note": "(configuration not stated)", "Potency": "inconclusive: 28.2 µM [inhibitor, partial curve]"},
      {"smiles": "COc1ccc(-n2c(SCC(N)=O)nc3sc4c(c3c2=O)CCN(C)C4)cc1", "Potency": "inconclusive: 20 µM [inhibitor, partial curve]"},
      {"smiles": "CCOC(=O)CSC1=NC(=O)/C(=C/c2ccc(OC)cc2)S1", "activity change, negative = inhibition": "inactive: 5.63%"},
      {"smiles": "Cc1nnc(NC(=O)c2ccc(S(=O)(=O)N3CCCCCC3)cc2)o1", "Potency": "inconclusive: 39.8 µM [inhibitor, single point]"},
      {"smiles": "C#CCOCCOCCOCCNc1nc(N2CCOCC2)nc(N2CCN(C(=O)[C@H]([C@@H](C)O)n3cc(CCCCN)nn3)CC2)n1", "Potency": "inconclusive: 31.6 µM [inhibitor, single point]"},
      {"smiles": "CC1CN(CCCCOc2ccc(F)cc2)CC(C)O1", "note": "(configuration not stated)", "Potency": "inconclusive: 22.4 µM [inhibitor, single point]"},
      {"smiles": "O=C(Nc1ccc(S(=O)(=O)Nc2ncccn2)cc1)c1nn(Cc2ccccc2)c(=O)c2ccccc12", "Potency": "inconclusive: 39.8 µM [inhibitor, single point]"},
      {"smiles": "Nc1ccc2nc(-c3ccc(N)c(Cl)c3)[nH]c2c1", "Potency": "inconclusive: 28.2 µM [inhibitor, partial curve]"},
      {"smiles": "COC(=O)Cn1c(C)nc([N+](=O)[O-])c1Br", "activity change, negative = inhibition": "inactive: 1.46%"},
      {"smiles": "C=CCn1c(SCC(N)=O)nnc1-c1cc2c(s1)CCC(CC)C2", "note": "(configuration not stated)", "Potency": "inconclusive: 35.5 µM [inhibitor, single point]"},
      {"smiles": "O=C(CSc1nnc(-c2ccncc2)n1Cc1ccccc1)NC1CCCc2ccccc21", "note": "(configuration not stated)", "Potency": "inconclusive: 35.5 µM [inhibitor, single point]"},
      {"smiles": "COC(=O)Cn1c(=NC(=O)c2ccc(Cl)s2)sc2cc(F)ccc21", "Potency": "inconclusive: 3.55 µM [inhibitor, full curve]"},
      {"smiles": "O=C(CSc1nnc(-c2cccs2)n1-c1ccccc1)N1CCCC1", "activity change, negative = inhibition": "inactive: 8.53%"},
      {"smiles": "CCn1c(CSc2nc3ccccc3[nH]2)n[nH]c1=S", "activity change, negative = inhibition": "inactive: -2.64%"},
      {"smiles": "CC(CCc1ccccc1)NC(=O)C1CCN(c2nnc(-n3cccc3)s2)CC1", "note": "(configuration not stated)", "activity change, negative = inhibition": "inactive: 4.51%"},
      {"smiles": "CN1CCN(CCNC(=O)c2cc3c(=O)n(C)c4ccccc4c3n2C)CC1", "Potency": "inconclusive: 31.6 µM [inhibitor, partial curve]"},
      {"smiles": "FC(F)(F)c1cc(-c2ccco2)nc(NCc2ccc(Cl)cc2)n1", "Potency": "inconclusive: 28.2 µM [inhibitor, single point]"},
      {"smiles": "C[C@H](NC(=O)/C(C#N)=C/c1ccc(O)c(O)c1)c1ccccc1", "Potency": "active: 8.91 µM and active: 7.08 µM"},
      {"smiles": "Nc1nc2c(nc(Sc3ccc(Cl)cc3)n2C2OC(CO)C(O)C2O)c(=O)[nH]1", "note": "(configuration not stated)", "activity change, negative = inhibition": "inactive: 2.11%"},
      {"smiles": "OCC1OC(n2cnc3c(=S)nc[nH]c32)C(O)C1O", "note": "(configuration not stated)", "Potency": "inconclusive: 39.8 µM [inhibitor, single point]"},
      {"smiles": "O=C(CC(c1ccccc1)C1CCCCC1=O)c1ccco1", "note": "(configuration not stated)", "Potency": "inconclusive: 0.631 µM [inhibitor, partial curve, poor fit]"},
      {"smiles": "Cc1cc(C)n(-c2ccc(Cl)c(Cl)c2)n1", "activity change, negative = inhibition": "inactive: -0.0973%"},
      {"smiles": "COc1c(OC2OC(C(=O)O)C(O)C(O)C2O)cc(O)c2c(=O)cc(-c3ccccc3)oc12", "note": "(configuration not stated)", "Potency": "inconclusive: 39.8 µM [inhibitor, single point]"},
      {"smiles": "CCOCCCNC(=O)CSCc1nc(-c2ccc(SC)cc2)oc1C", "Potency": "inconclusive: 39.8 µM [inhibitor, single point]"},
      {"smiles": "COc1ccc(/C=C/C(=O)NCc2ccccn2)cc1OC", "Potency": "inconclusive: 8.91 µM [inhibitor, single point]"},
      {"smiles": "CS(=O)(=O)N1CCN(c2ccccc2NC(=O)c2ccc(Cl)cc2)CC1", "Potency": "inconclusive: 35.5 µM [inhibitor, single point]"},
      {"smiles": "COc1ccc(OC)c(C2C(C(=O)Nc3nc4ccccc4s3)=C(C)NC3=C2C(=O)CCC3)c1", "note": "(configuration not stated)", "Potency": "inconclusive: 35.5 µM [inhibitor, partial curve]"},
      {"smiles": "Cn1cnc([N+](=O)[O-])c1Cl", "Potency": "inconclusive: 39.8 µM [inhibitor, single point]"},
      {"smiles": "CCOC(=O)c1ccccc1NC(=O)CC1SC(=NC)N(C)C1=O", "note": "(configuration not stated)", "Potency": "inconclusive: 25.1 µM [inhibitor, single point]"},
      {"smiles": "CCN(CC)S(=O)(=O)c1cccc(C(=O)OCC(=O)Nc2ccc3c(c2)c2ccccc2n3CC)c1", "Potency": "inconclusive: 31.6 µM [inhibitor, single point]"},
      {"smiles": "CCCOc1ccc([N+](=O)[O-])cc1C1NC(=S)NC(c2ccccc2)=C1C(=O)OCC", "note": "(configuration not stated)", "activity change, negative = inhibition": "inactive: -1.55%"},
      {"smiles": "CCc1cccc2nc3c(c([Si](CC)(CC)CC)c12)Cn1c-3cccc1=O", "Potency": "inconclusive: 28.2 µM [inhibitor, partial curve]"},
      {"smiles": "CSCC[C@H](NC(=O)OC(C)(C)C)C(=O)N/N=C/c1cccc2cccnc12", "Potency": "inconclusive: 35.5 µM [inhibitor, single point]"},
      {"smiles": "CC1CCCN(S(=O)(=O)c2ccc(C(=O)Nc3nnc(-c4ccccn4)o3)cc2)C1", "note": "(configuration not stated)", "Potency": "inconclusive: 39.8 µM [inhibitor, single point]"},
      {"smiles": "Cc1cccc2sc(N(CCCN(C)C)C(=O)c3nc4ccccc4s3)nc12", "Potency": "inconclusive: 39.8 µM [inhibitor, single point]"},
      {"smiles": "Cc1cc(NC(=O)c2ccc(Cl)cc2Cl)n(CCC#N)n1", "activity change, negative = inhibition": "inactive: 4.63%"},
      {"smiles": "C/C(=N\\NC(=O)C1=NNC(=O)C1C)c1cccs1", "note": "(configuration not stated)", "activity change, negative = inhibition": "inactive: 1.25%"},
      {"smiles": "O=S1(=O)c2cccc3cccc(c23)N1Cc1ccc(-c2nnco2)cc1", "Potency": "inconclusive: 35.5 µM [inhibitor, partial curve]"},
      {"smiles": "CC1(C)CC(=O)C(C(=O)CCCCC(=O)C2C(=O)CC(C)(C)CC2=O)C(=O)C1", "Potency": "inconclusive: 39.8 µM [inhibitor, single point]"},
      {"smiles": "CCOC(=O)c1c(NC(=O)CCC(=O)NCc2ccco2)sc2c1CCCC2", "Potency": "inconclusive: 35.5 µM [inhibitor, single point]"},
      {"smiles": "CC(C)=CCN1CCN(Cc2cnc(N3CCOCC3)s2)CC1CCO", "note": "(configuration not stated)", "activity change, negative = inhibition": "inactive: -13.1%"},
      {"smiles": "O=C(N/N=C/c1cc2cc3c(cc2nc1Cl)OCCO3)c1ccccc1O", "Potency": "inconclusive: 35.5 µM [inhibitor, single point]"},
      {"smiles": "CN1CCN(C(=S)c2ccc(-c3cc(Cl)ccc3Cl)o2)CC1", "activity change, negative = inhibition": "inactive: 12.4%"},
      {"smiles": "CCN(CC)S(=O)(=O)c1ccc(/C=C/C(=O)OCC(=O)Nc2ccc(C(N)=O)cc2)cc1", "activity change, negative = inhibition": "inactive: -6%"},
      {"smiles": "O=C(Nc1cccc(-c2nc3cccnc3s2)c1)c1ccco1", "Potency": "inconclusive: 39.8 µM [inhibitor, single point]"},
      {"smiles": "N#CCSc1nc2ccc(N3CCOCC3)cc2c(=O)n1CCc1ccccc1", "Potency": "inconclusive: 31.6 µM [inhibitor, partial curve]"},
      {"smiles": "O=C(COC(=O)/C=C/c1cccs1)Nc1nc(-c2ccccc2)cs1", "activity change, negative = inhibition": "inactive: 2.6%"},
      {"smiles": "CCOC(=O)N1CCC(NC(=O)Cn2ncc3c4ccccc4n(C)c3c2=O)CC1", "Potency": "inconclusive: 25.1 µM [inhibitor, partial curve]"},
      {"smiles": "CC1CCCC(NC(=O)COC(=O)/C=C/c2ccc(S(=O)(=O)N3CCOCC3)cc2)C1C", "note": "(configuration not stated)", "activity change, negative = inhibition": "inactive: -24.7%"}
    ]}
  ]
}
